Data taken from the antibiotic and cytotoxicity screens of Wong et al. (2023).
Some of the results follow.

Assays:
[1] = test system: HSkMC (human skeletal muscle cells); assay: cytotoxicity call (relative viability < 0.9); conditions: 10 µM
[2] = test system: HepG2; assay: cytotoxicity call (relative viability < 0.9); conditions: 10 µM
[3] = test system: S. aureus RN4220; assay: growth inhibition call (relative growth <= 0.2); conditions: 50 µM

C[C@H](CO)N1C[C@H](C)[C@H](CN(C)S(C)(=O)=O)Oc2ccc(NC(=O)Cc3ccccc3)cc2CC1=O
inactive: cytotoxicity call [1] | cytotoxicity call [2] | growth inhibition call [3]

C[C@H]1CN([C@@H](C)CO)C(=O)c2cccc(NC(=O)Nc3ccc(F)cc3)c2O[C@H]1CN(C)C(=O)Nc1ccc(C(F)(F)F)cc1
inactive: cytotoxicity call [1] | cytotoxicity call [2] | growth inhibition call [3]

C[C@@H]1CN([C@H](C)CO)C(=O)c2cc(C#CCN(C)C)cnc2O[C@H]1CN(C)C(=O)c1ccc2c(c1)OCO2
inactive: cytotoxicity call [1] | cytotoxicity call [2] | growth inhibition call [3]

C[C@@H]1CCCCO[C@H](CN(C)C(=O)NC2CCCCC2)[C@@H](C)CN([C@@H](C)CO)C(=O)c2cc(NC(=O)Cc3ccccc3)ccc2O1
inactive: cytotoxicity call [1] | cytotoxicity call [2] | growth inhibition call [3]

CN1CCN(C(=O)C[C@@H]2C=C[C@H](NS(=O)(=O)c3cccc(F)c3)[C@@H](CO)O2)CC1
inactive: cytotoxicity call [1] | cytotoxicity call [2] | growth inhibition call [3]

C[C@H](CO)N1C[C@H](C)[C@H](CN(C)Cc2cccc(F)c2)Oc2cc(C#CC3CC3)ccc2S1(=O)=O
inactive: cytotoxicity call [1] | cytotoxicity call [2] | growth inhibition call [3]

C[C@@H]1CN([C@H](C)CO)C(=O)Cc2cc(NC(=O)Cn3cnnn3)ccc2O[C@H]1CN(C)Cc1ccc(Oc2ccccc2)cc1
inactive: cytotoxicity call [1] | cytotoxicity call [2] | growth inhibition call [3]

CC(C)NC(=O)Nc1ccc2c(c1)C(=O)N([C@H](C)CO)C[C@@H](C)[C@@H](CN(C)S(=O)(=O)c1cccs1)O2
inactive: cytotoxicity call [1] | cytotoxicity call [2] | growth inhibition call [3]

COc1ccc(CN(C)C[C@H]2Oc3ccc(NC(=O)Cn4cnnn4)cc3C(=O)N([C@@H](C)CO)C[C@@H]2C)cc1
inactive: cytotoxicity call [1] | cytotoxicity call [2] | growth inhibition call [3]
